Enrichment data for 8 sequences are collected here from the supplement of paper PMC12230231.

± gives the standard deviation of the averaged measurements. Restriction of a single-cycle SIVsab GFP reporter by TRIM5α v1-loop variants in CRFK cells. Human variants: read share among cells still uninfected after two challenges over input, higher = gained restriction. Rhesus variants: share among infected cells over input, higher = lost restriction. Reporter dose not given per row. No active / inactive call per row; the paper calls a change when both replicates lie above its controls (mean + 2 SD of stop or wild-type variants, or the top frameshift score). Residues outside the varied loop are taken from Swiss-Prot. The paper reads the human single-substitution scores as noise; they and the rhesus combinations repeat poorly (rank correlation 0.3 to 0.4), indel scores repeat only for the top variants, rhesus substitutions well (0.9).

The test system of this series is SIVsab (simian immunodeficiency virus of sabaeus monkeys), single-cycle GFP reporter, in CRFK cells. Briefly: enrichment among infected cells over input (fold); higher = weaker restriction. The following applies: library: human / rhesus combinations. How it is done:
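Pools of CRFK cells expressing variants of the TRIM5α v1 loop were challenged with the single-cycle reporter, sorted by GFP and sequenced; mean of two replicates.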
In the case of “MASGILLNVKEEVTCPICLELLTEPLSLHCGHSFCQACITANHKKSMLYKEGERSCPVCRISYQPENIQPNRHVANIVEKLREVKLSPEEGQKVDHCARHGEKLLLFCQEDSKVICWLCERSQEHRGHHTFLMEEVAQEYHVKLQTALEMLRQKQQEAEKLEADIREEKASWKIQIDYDKTNVSADFEQLREILDWEESNELQNLEKEEEDILKSLTKSETEMVQQTQYMRELISELEHRLQGSMMDLLQGVDGIIKRIENMTLKKPKTFHKNQRRVFRAPDLKGMLDMFRELTDARRYWVDVTLAPNNISHAVIAEDKRQVSSRNPQIMYQAPGTRYTFQTFTNFNYCTGVLGSQSITSGKHYWEVDVSKKSAWILGVCAGFQSDAMYNIEQNENYQPKYGYWVIGLQEGVKYSVFQDGSSHTPFAPFIVPLSVIICPDRVGVFVDYEACTVSFFNITNHGFLIYKFSQCSFSKPVFPYLNPRKCTVPMTLCSPSS [rhesus TRIM5α, 332-344 = QAPGTRYTFQTFT]”, the enrichment was 1.17 ± 0.092.

Consider “MASGILLNVKEEVTCPICLELLTEPLSLHCGHSFCQACITANHKKSMLYKEGERSCPVCRISYQPENIQPNRHVANIVEKLREVKLSPEEGQKVDHCARHGEKLLLFCQEDSKVICWLCERSQEHRGHHTFLMEEVAQEYHVKLQTALEMLRQKQQEAEKLEADIREEKASWKIQIDYDKTNVSADFEQLREILDWEESNELQNLEKEEEDILKSLTKSETEMVQQTQYMRELISELEHRLQGSMMDLLQGVDGIIKRIENMTLKKPKTFHKNQRRVFRAPDLKGMLDMFRELTDARRYWVDVTLAPNNISHAVIAEDKRQVSSRNPQIMYQAPGTRYTFQTFVNFNYCTGVLGSQSITSGKHYWEVDVSKKSAWILGVCAGFQSDAMYNIEQNENYQPKYGYWVIGLQEGVKYSVFQDGSSHTPFAPFIVPLSVIICPDRVGVFVDYEACTVSFFNITNHGFLIYKFSQCSFSKPVFPYLNPRKCTVPMTLCSPSS [rhesus TRIM5α, 332-344 = QAPGTRYTFQTFV]”, for which the enrichment is 8.93 ± 11.

Consider “MASGILLNVKEEVTCPICLELLTEPLSLHCGHSFCQACITANHKKSMLYKEGERSCPVCRISYQPENIQPNRHVANIVEKLREVKLSPEEGQKVDHCARHGEKLLLFCQEDSKVICWLCERSQEHRGHHTFLMEEVAQEYHVKLQTALEMLRQKQQEAEKLEADIREEKASWKIQIDYDKTNVSADFEQLREILDWEESNELQNLEKEEEDILKSLTKSETEMVQQTQYMRELISELEHRLQGSMMDLLQGVDGIIKRIENMTLKKPKTFHKNQRRVFRAPDLKGMLDMFRELTDARRYWVDVTLAPNNISHAVIAEDKRQVSSRNPQIMYQAPGTRYTFQTLTNFNYCTGVLGSQSITSGKHYWEVDVSKKSAWILGVCAGFQSDAMYNIEQNENYQPKYGYWVIGLQEGVKYSVFQDGSSHTPFAPFIVPLSVIICPDRVGVFVDYEACTVSFFNITNHGFLIYKFSQCSFSKPVFPYLNPRKCTVPMTLCSPSS [rhesus TRIM5α, 332-344 = QAPGTRYTFQTLT]”, for which the enrichment was determined as 1.09 ± 0.27.

Take “MASGILLNVKEEVTCPICLELLTEPLSLHCGHSFCQACITANHKKSMLYKEGERSCPVCRISYQPENIQPNRHVANIVEKLREVKLSPEEGQKVDHCARHGEKLLLFCQEDSKVICWLCERSQEHRGHHTFLMEEVAQEYHVKLQTALEMLRQKQQEAEKLEADIREEKASWKIQIDYDKTNVSADFEQLREILDWEESNELQNLEKEEEDILKSLTKSETEMVQQTQYMRELISELEHRLQGSMMDLLQGVDGIIKRIENMTLKKPKTFHKNQRRVFRAPDLKGMLDMFRELTDARRYWVDVTLAPNNISHAVIAEDKRQVSSRNPQIMYQAPGTRYTFQTLVNFNYCTGVLGSQSITSGKHYWEVDVSKKSAWILGVCAGFQSDAMYNIEQNENYQPKYGYWVIGLQEGVKYSVFQDGSSHTPFAPFIVPLSVIICPDRVGVFVDYEACTVSFFNITNHGFLIYKFSQCSFSKPVFPYLNPRKCTVPMTLCSPSS [rhesus TRIM5α, 332-344 = QAPGTRYTFQTLV]”: the enrichment was found to be 0.534 ± 0.2.

Regarding “MASGILLNVKEEVTCPICLELLTEPLSLHCGHSFCQACITANHKKSMLYKEGERSCPVCRISYQPENIQPNRHVANIVEKLREVKLSPEEGQKVDHCARHGEKLLLFCQEDSKVICWLCERSQEHRGHHTFLMEEVAQEYHVKLQTALEMLRQKQQEAEKLEADIREEKASWKIQIDYDKTNVSADFEQLREILDWEESNELQNLEKEEEDILKSLTKSETEMVQQTQYMRELISELEHRLQGSMMDLLQGVDGIIKRIENMTLKKPKTFHKNQRRVFRAPDLKGMLDMFRELTDARRYWVDVTLAPNNISHAVIAEDKRQVSSRNPQIMYQARGTLFPSLTNFNYCTGVLGSQSITSGKHYWEVDVSKKSAWILGVCAGFQSDAMYNIEQNENYQPKYGYWVIGLQEGVKYSVFQDGSSHTPFAPFIVPLSVIICPDRVGVFVDYEACTVSFFNITNHGFLIYKFSQCSFSKPVFPYLNPRKCTVPMTLCSPSS [rhesus TRIM5α, 332-344 = QARGTLFPSLT]”, the enrichment is 1.87 ± 1.6.

Take “MASGILLNVKEEVTCPICLELLTEPLSLHCGHSFCQACITANHKKSMLYKEGERSCPVCRISYQPENIQPNRHVANIVEKLREVKLSPEEGQKVDHCARHGEKLLLFCQEDSKVICWLCERSQEHRGHHTFLMEEVAQEYHVKLQTALEMLRQKQQEAEKLEADIREEKASWKIQIDYDKTNVSADFEQLREILDWEESNELQNLEKEEEDILKSLTKSETEMVQQTQYMRELISELEHRLQGSMMDLLQGVDGIIKRIENMTLKKPKTFHKNQRRVFRAPDLKGMLDMFRELTDARRYWVDVTLAPNNISHAVIAEDKRQVSSRNPQIMYQARGTLFPTFTNFNYCTGVLGSQSITSGKHYWEVDVSKKSAWILGVCAGFQSDAMYNIEQNENYQPKYGYWVIGLQEGVKYSVFQDGSSHTPFAPFIVPLSVIICPDRVGVFVDYEACTVSFFNITNHGFLIYKFSQCSFSKPVFPYLNPRKCTVPMTLCSPSS [rhesus TRIM5α, 332-344 = QARGTLFPTFT]”: the enrichment amounted to 0.0904 ± 0.074.

In the case of “MASGILLNVKEEVTCPICLELLTEPLSLHCGHSFCQACITANHKKSMLYKEGERSCPVCRISYQPENIQPNRHVANIVEKLREVKLSPEEGQKVDHCARHGEKLLLFCQEDSKVICWLCERSQEHRGHHTFLMEEVAQEYHVKLQTALEMLRQKQQEAEKLEADIREEKASWKIQIDYDKTNVSADFEQLREILDWEESNELQNLEKEEEDILKSLTKSETEMVQQTQYMRELISELEHRLQGSMMDLLQGVDGIIKRIENMTLKKPKTFHKNQRRVFRAPDLKGMLDMFRELTDARRYWVDVTLAPNNISHAVIAEDKRQVSSRNPQIMYQARGTLFQSFVNFNYCTGVLGSQSITSGKHYWEVDVSKKSAWILGVCAGFQSDAMYNIEQNENYQPKYGYWVIGLQEGVKYSVFQDGSSHTPFAPFIVPLSVIICPDRVGVFVDYEACTVSFFNITNHGFLIYKFSQCSFSKPVFPYLNPRKCTVPMTLCSPSS [rhesus TRIM5α, 332-344 = QARGTLFQSFV]”, the enrichment was found to be 0.688 ± 0.6.

For the sequence “MASGILLNVKEEVTCPICLELLTEPLSLHCGHSFCQACITANHKKSMLYKEGERSCPVCRISYQPENIQPNRHVANIVEKLREVKLSPEEGQKVDHCARHGEKLLLFCQEDSKVICWLCERSQEHRGHHTFLMEEVAQEYHVKLQTALEMLRQKQQEAEKLEADIREEKASWKIQIDYDKTNVSADFEQLREILDWEESNELQNLEKEEEDILKSLTKSETEMVQQTQYMRELISELEHRLQGSMMDLLQGVDGIIKRIENMTLKKPKTFHKNQRRVFRAPDLKGMLDMFRELTDARRYWVDVTLAPNNISHAVIAEDKRQVSSRNPQIMYQARGTLFTFPSFVNFNYCTGVLGSQSITSGKHYWEVDVSKKSAWILGVCAGFQSDAMYNIEQNENYQPKYGYWVIGLQEGVKYSVFQDGSSHTPFAPFIVPLSVIICPDRVGVFVDYEACTVSFFNITNHGFLIYKFSQCSFSKPVFPYLNPRKCTVPMTLCSPSS [rhesus TRIM5α, 332-344 = QARGTLFTFPSFV]”, the enrichment is 0.25 ± 0.28.
